From PubChem BioAssay AID1460 (National Center for Advancing Translational Sciences (NCATS), 2008)
Out of some 270,000 compounds screened, about 5,800 (2.1%) were called active. The inconclusive results got no clear call from the source; some entries with a clear call stand among them for comparison. Calls follow the shape of the dose curve; as a rule, active = well fitted inhibition curve with a large enough effect; inconclusive = small, poorly fitted or top-dose-only effect; inactive = flat fitted curve, though single readings scatter. Potencies of inconclusive entries are doubtful fits and often do not repeat.

Target: Microtubule-associated protein tau (Homo sapiens) (UniProt P10636)
Chain of UniProt P10636 (P10636 whole entry, looked up): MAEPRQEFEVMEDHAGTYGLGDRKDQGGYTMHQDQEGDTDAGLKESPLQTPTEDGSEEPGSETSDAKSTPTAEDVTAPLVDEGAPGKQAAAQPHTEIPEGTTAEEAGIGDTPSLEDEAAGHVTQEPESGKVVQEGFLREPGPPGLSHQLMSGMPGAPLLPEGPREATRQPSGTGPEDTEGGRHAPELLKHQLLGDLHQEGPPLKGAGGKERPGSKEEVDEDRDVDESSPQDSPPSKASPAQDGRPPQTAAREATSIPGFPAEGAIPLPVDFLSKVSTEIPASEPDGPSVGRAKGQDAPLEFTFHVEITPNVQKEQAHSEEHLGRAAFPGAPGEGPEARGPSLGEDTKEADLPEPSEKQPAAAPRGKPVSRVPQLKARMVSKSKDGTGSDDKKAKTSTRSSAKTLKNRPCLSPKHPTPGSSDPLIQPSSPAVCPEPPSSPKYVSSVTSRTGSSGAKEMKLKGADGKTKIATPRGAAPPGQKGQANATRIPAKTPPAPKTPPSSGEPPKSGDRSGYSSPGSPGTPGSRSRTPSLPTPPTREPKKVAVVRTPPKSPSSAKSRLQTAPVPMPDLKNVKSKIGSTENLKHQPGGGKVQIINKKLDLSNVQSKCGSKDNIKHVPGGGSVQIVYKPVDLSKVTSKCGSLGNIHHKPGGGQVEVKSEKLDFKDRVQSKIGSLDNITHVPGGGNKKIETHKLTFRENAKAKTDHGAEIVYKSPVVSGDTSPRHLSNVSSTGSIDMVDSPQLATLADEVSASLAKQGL
Test: qHTS for Inhibitors of Tau Fibril Formation, Thioflavin T Binding; also: nearly all actives have a fitted effect of over 55% in size
Conditions: recombinant tau K18 P301L (four-repeat tau fragment), heparin-induced fibrillization, ThT fluorescence; series mostly up to 57.4 µM; activity, negative = inhibition: at the top concentration
How it was run: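 Tau K18 P301L fragment (15 uM unlabeled plus 0.24 uM Alexa 594-labeled) in 100 mM sodium acetate pH 7 with compound, fibrillization induced by 20 uM heparin for 6 hr at 37 C. Thioflavin T (30 uM) added, fluorescence read after 1 hr (ex 450, em 510 nm).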
% is scaled to controls: 0 for no effect and ±100 for the full control effect; potency is read from the fitted curve at half-maximal effect; tags tell the direction and shape of the fitted curve.

| Structure (SMILES) | Potency | activity, negative = inhibition |
| --- | --- | --- |
| CCOc1ccc(NC(=S)Nc2cc(OC)c(Cl)cc2OC)cc1 | inconclusive: 3.98 µM [inhibitor, partial curve, poor fit] |  |
| COc1cc(OC)c2c(-c3cccc(-c4cccc(N)c4)c3)cc(=O)oc2c1 | inconclusive: 10 µM [inhibitor, full curve] |  |
| COc1ccc(C(=O)Oc2cc(/C=N/NS(=O)(=O)c3ccccc3)ccc2OC)cc1 |  | inactive: -6.07% |
| CN(C(=O)CSc1nc2ccccc2n1Cc1cccc(C(F)(F)F)c1)c1ccccc1 | inconclusive: 39.8 µM [inhibitor, single point] |  |
| CCOC(=O)c1c(NC(=O)Cn2nnc3ccccc32)sc2c1CCC(C)C2 (stereo not given) |  | inactive: -22.3% |
| COc1ccc(OC)c(NC(=O)C(=O)NNC(=O)c2cccs2)c1 | inconclusive: 31.6 µM [inhibitor, single point] |  |
| CCOC(=O)c1c(NS(=O)(=O)Cc2ccccc2)sc2c1CCCC2 | inconclusive: 35.5 µM [inhibitor, partial curve, poor fit] |  |
| CCOc1ccc(S(=O)(=O)N(C(=O)c2ccncc2)c2ccc3oc(C)c(C(=O)OC)c3c2)cc1 | inconclusive: 11.2 µM [inhibitor, partial curve] |  |
| CN(C)Cc1ccccc1-c1ccc2ncnc(N(C)Cc3ccco3)c2c1 |  | inactive: -13.1% |
| ClCC1NCC(c2ccccc2Cl)c2c1[nH]c1ccccc21 (stereo not given) | inconclusive: 0.794 µM [inhibitor, partial curve] |  |
| Cc1nn(C)cc1/C=C1\CCC/C(=C\c2cn(C)nc2C)C1=O | inconclusive: 6.31 µM [inhibitor, partial curve] |  |
| O=S(=O)(Nc1ccc(-n2cccc2)cc1)c1ccc(Cl)c(Cl)c1 |  | inactive: -8.61% |
| O=C(Nc1ccc(S(=O)(=O)NCc2ccccc2)cc1)Nc1ccc2c(c1)OCO2 | inconclusive: 2.51 µM [inhibitor, full curve, poor fit] |  |
| CC(C)Cn1c(CN2CCCCC2C)nc2c1c(=O)n(C)c(=O)n2C (stereo not given) | inconclusive: 6.31 µM [inhibitor, partial curve] |  |
| CCCCCCCCOc1ccc(C2OC34CCCCC3C(C#N)(C#N)C2(C#N)C(=N)O4)cc1 (stereo not given) | inconclusive: 20 µM [inhibitor, partial curve] |  |
| O=C(Nc1ccc(N2CCCCC2)c(Cl)c1)c1ccc2c(c1)OCCO2 | inconclusive: 8.91 µM [inhibitor, partial curve] |  |
| CC[C@H](CO)Nc1nc(Nc2cccc(Cl)c2)c2ncn(C(C)C)c2n1 | inconclusive: 25.1 µM [inhibitor, single point] |  |
| C=CCN1c2ccccc2[C@]23C[C@@H](C(=O)OC)N(S(=O)(=O)CCCC)C2=NC(C(=O)OC)=C(C(=O)OC)[C@H]13 |  | inactive: -4.05% [at 11.5 µM] |
| Cn1c(N)c(C(=O)COC(=O)CCc2nc3ccccc3s2)c(=O)n(C)c1=O | inconclusive: 8.91 µM [inhibitor, partial curve] |  |
| CCOc1ccccc1C(=O)N(Cc1cccs1)c1ccc(Cl)cc1 | inconclusive: 25.1 µM [inhibitor, single point] |  |
| Cc1cc(C)c(C(=O)CSc2n[nH]c(=O)n2C2CC2)cc1C | inconclusive: 39.8 µM [inhibitor, single point] |  |
| Cc1cccc(N2CCN(C(=O)/C=C/c3ccco3)CC2)c1C | inconclusive: 31.6 µM [inhibitor, single point] |  |

| Structure (SMILES) | Potency | activity, negative = inhibition |
| --- | --- | --- |
| O=C1CCCC2=C1C(c1ccncc1)n1c(nc3ccccc31)N2 (stereo not given) |  | inactive: -2.32% |
| Fc1ccccc1/C=C1\CCCC2=C1Nc1ncnn1C2c1ccccc1F (stereo not given) | inconclusive: 31.6 µM [inhibitor, partial curve] |  |
| CCCCc1c(O)nc(SCC(=O)c2ccccc2)n(-c2ccccc2OC)c1=O |  | inactive: -14.4% |
| CC(=O)N(Cc1cc(=O)[nH]c2ccccc12)c1ccccc1 |  | inactive: -7.17% |
| COc1cccc(CN2CCNC(=O)C2CC(=O)NCCn2ccc3ccccc32)c1OC (stereo not given) | inconclusive: 15.8 µM [inhibitor, single point] |  |
| CC(=O)OCC1(C)CN(c2ccccc2)N(C(C)=O)C1=O (stereo not given) | inconclusive: 31.6 µM [inhibitor, single point] |  |
| CCOc1cc(C(=O)NCc2ccc(-c3nc4ccccc4o3)cc2)cc(OCC)c1OCC | inconclusive: 35.5 µM [inhibitor, partial curve] |  |
| COc1ccc(Nc2ncc3c(n2)CCN(C(=O)OC(C)(C)C)C3)cc1 | inconclusive: 17.8 µM [inhibitor, partial curve] |  |
| COc1ccc(OC)c(Nc2ccc(C(=O)O)cc2[N+](=O)[O-])c1 | inconclusive: 11.2 µM [inhibitor, partial curve] |  |
| COC(=O)CCC(=O)Nc1sc(C)c(C)c1C(N)=O | inconclusive: 44.7 µM [inhibitor, single point] |  |
| COc1ccc(N2C(=O)c3cccc4cccc(c34)C2=O)nn1 | inconclusive: 0.447 µM [inhibitor, partial curve] |  |
| COc1ccc(/C=C2\SC(=O)N(CCNC(=O)Cc3coc4cc(OC)ccc34)C2=O)cc1 | inconclusive: 1.12 µM [inhibitor, full curve, poor fit] |  |
| Cc1cc(/C=N/NC(=O)c2cccc(N(C)C)c2)c(C)n1-c1cc(C(=O)O)cc(C(=O)O)c1 | inconclusive: 17.8 µM [inhibitor, partial curve] |  |
| CCOC1=NC(C(=O)O)c2ccccc2/C(=C(/C)Cl)N1 (stereo not given) |  | inactive: -6.03% |
| COc1cccc(Cn2c(CNS(=O)(=O)c3ccc4c(c3)CCCC4)nc3cccnc32)c1 |  | inactive: -5.39% |
| CCOc1ccc(S(=O)(=O)N2CCN(Cc3ccccc3)CC2)c2cccnc12 | inconclusive: 39.8 µM [inhibitor, single point] |  |
| COc1ccccc1C(=O)Nc1nc2nc(C)c(Cc3ccccc3)c(=O)n2[nH]1 | inconclusive: 22.4 µM [inhibitor, single point] |  |
| O=C1N=C(N2CCc3ccccc3C2)S/C1=C\c1ccc(O)cc1 | inconclusive: 15.8 µM [inhibitor, partial curve] |  |
| CC(=O)c1ccc(NC(=O)Cn2ncc3c(C)n(Cc4ccc(F)cc4)c(C)c3c2=O)cc1 | inconclusive: 8.91 µM [inhibitor, single point] |  |
| CCN(CC)N=Nc1ccc(C(=O)O)cc1 | inconclusive: 25.1 µM [inhibitor, partial curve] |  |
| O=C(CNCc1ccccc1)Nc1ccccc1-c1ccccc1 |  | inactive: 3.23% |
| O=C(NCCCO)c1ccc2[nH]c3c(c2c1)CCCC3 | inconclusive: 2.51 µM [inhibitor, partial curve, poor fit] |  |

| Structure (SMILES) | Potency | activity, negative = inhibition |
| --- | --- | --- |
| Cc1ccc(C(=O)OCC(=O)Nc2ccc3[nH]c(=O)[nH]c3c2)cc1[N+](=O)[O-] | inconclusive: 5.62 µM [inhibitor, partial curve] |  |
| CCn1cc(/C=N\NC(=O)c2ccc(F)cc2)cn1 | inconclusive: 17.8 µM [inhibitor, single point] |  |
| CSCCC(NC(=O)c1ccco1)C(=O)OCC(=O)Nc1ncc(Cl)c(C)c1Cl (stereo not given) | inconclusive: 14.1 µM [inhibitor, partial curve] |  |
| CCC(=O)NC(=S)Nc1cccc(NC(=O)c2ccccc2Cl)c1 |  | inactive: -10.9% |
| O=C(/C=C\Nc1ccc(Cl)cn1)c1ccc(Br)cc1 | inconclusive: 5.01 µM [inhibitor, partial curve] |  |
| COC(=O)c1ccc(NC(=O)Nc2ccc(F)cc2)cc1 | inconclusive: 28.2 µM [activator, partial curve] |  |
| C=CCNC(=O)c1ccc(C2SCC(=O)N2Cc2ccco2)cc1 (stereo not given) |  | inactive: -19.5% |
| Cc1nn(CCCC(=O)Nc2cccc(F)c2)c(=O)c2c1sc1ccccc12 | inconclusive: 39.8 µM [activator, single point] |  |
| O=C(NCc1ccccc1)c1ccc(S(=O)(=O)N2CCCc3ccccc32)cc1 |  | inactive: -13% |
| CC(C)NC(=O)NC(=O)CSc1nnc(COc2ccccc2F)n1C(C)C1CC2CCC1C2 (stereo not given) | inconclusive: 12.6 µM [inhibitor, partial curve] |  |
| Cc1ccc(C(=O)NNC(=O)c2ccc(SCC3CCCO3)c([N+](=O)[O-])c2)cc1 (stereo not given) | inconclusive: 6.31 µM [inhibitor, partial curve] |  |
| Cc1ccc2nc(C)c(C(=O)N/N=C/c3ccc(N4CCOCC4)cc3)cc2c1 | inconclusive: 0.631 µM [inhibitor, full curve] |  |
| COc1ccc(NC(=S)NC(=O)c2csnn2)cc1 | inconclusive: 1.78 µM [inhibitor, partial curve, poor fit] |  |
| COc1ccc(/C=C/C(=O)c2ccc(Cl)cc2)c(OC)c1 | inconclusive: 20 µM [inhibitor, partial curve] |  |
| Nc1ccc(C(=O)Nc2ccco2)cc1 |  | inactive: -13.3% |
| O=C(NCCc1cccc(Cl)c1)c1ccc(Cl)c([N+](=O)[O-])c1 | inconclusive: 25.1 µM [inhibitor, partial curve] |  |
| CSc1sc(-c2ccnc(=S)[nH]2)c(-c2ccccc2)c1C#N | inconclusive: 7.08 µM [inhibitor, partial curve, poor fit] |  |
| N=C(CC(O)COc1ccccc1-c1ccccc1)N1CCCCC1 (stereo not given) | inconclusive: 39.8 µM [inhibitor, single point] |  |
| NC(=O)c1c(NC(=O)CSc2nc3c(c(C(F)(F)F)n2)CCc2ccccc2-3)sc2c1CCCC2 |  | inactive: -9.07% |
| CC(c1ccccc1)C1C(C#N)=C(N)SC(N)=C1C#N (stereo not given) | inconclusive: 39.8 µM [inhibitor, single point] |  |
| CC(=O)C1(C)OC(N)=C(C#N)C(c2ccccc2)C1(C#N)C#N (stereo not given) | inconclusive: 25.1 µM [inhibitor, single point] |  |
